Results: PubChem BioAssay AID1345082 (National Center for Advancing Translational Sciences (NCATS), 2018)
Hit rate of the full screen: of about 94,000 compounds, about 4,000 (4.3%) were called active. The inconclusive results got no clear call from the source; some entries with a clear call stand among them for comparison. The call rests on the fitted dose curve; in most records, active means well fitted inhibition curve with a large enough effect; inconclusive means small, poorly fitted or top-dose-only effect; inactive means no such curve, though single readings can be large or run the other way. Potencies beside an inconclusive call are fits to weak or partial responses and may not hold up.
On the % scale 0 is the no-effect control and ±100 the full control effect; potency means the concentration at half of the fitted maximal effect; tags describe the fitted curve by direction and shape.

Experiment: Cytotoxic Profiling in NIH 3T3 Cell Line of Diverse Libraries Using Quantitative High-Throughput Screening; further: nearly all actives have a fitted effect of over 55% in size
Conditions: NIH 3T3 viability, CellTiter-Glo ATP luminescence, 48-72 h; activity change, negative = cytotoxicity: at 96.7 µM (top of the series) unless noted; series mostly up to 96.7 µM
Outline: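 Luminescent ATP readout (CellTiter-Glo, 10 min RT) after 48 or 72 hr compound exposure of NIH 3T3 cells seeded at 400 cells/well in 1536-well format; quantitative HTS.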
For CSc1ccc(-c2cccc(C(=O)NCCNC(=O)c3ccc(C)cc3)c2)cc1, the Potency was inconclusive: 39.8 µM [inhibitor, partial curve].
With O=C(Cc1cccc(F)c1)N1CCC2(CC1)CC(N(Cc1ccccc1)C1CC1)CCO2 (stereo not given) the Potency was inconclusive: 44.7 µM [inhibitor, partial curve, poor fit].
With Cc1ccc(Nc2ccnc(N3CCC(N[S+](=O)([O-])c4cccs4)CC3)n2)cc1 the Potency was active: 35.5 µM.
In the case of COc1cccc(CCC(=O)N2C[C@@H](CO)[C@H](c3ccncc3)C2)c1, the “activity change, negative = cytotoxicity” value is reported as inactive: -8.45%.
With COc1ccc(F)c(-c2nc(Cn3cnc4ccccc43)c(C)o2)c1 the Potency was inconclusive: 20 µM [inhibitor, full curve].
With COc1ccc(Cl)cc1NC(=O)CCC1CCCN(c2nc(C)cc(C)n2)C1 (stereo not given) the Potency was inconclusive: 50.1 µM [inhibitor, partial curve, poor fit].
In the case of O=C(c1nc(-c2ccc(Cl)cc2Cl)c2cnccn12)N1CCN(c2ncccn2)CC1, the “activity change, negative = cytotoxicity” value is reported as inactive: 2.66%.
With O=C(NCc1ccccc1F)c1ccc2c(c1)CN(Cc1ccncc1F)CCO2 the Potency was inconclusive: 25.1 µM [inhibitor, partial curve, poor fit].
For CCCc1nc(C(=O)NC2CC(c3cc(N4CCOCC4)ncn3)C2)cs1 (stereo not given), the Potency was inconclusive: 25.1 µM [inhibitor, partial curve].
With Cc1ccc(-c2ccc3nnc(CNC(=O)c4ccc(F)c(F)c4)n3n2)cc1C the Potency was inconclusive: 44.7 µM [inhibitor, partial curve, poor fit].
With Cc1ccc(C)c(CN2CCC3(CC2)[C@H](O)C[C@@H]3OCCN)c1 the Potency was inconclusive: 89.1 µM [inhibitor, partial curve, poor fit].
With O=C(Nc1ccc(Cl)cc1)N1CCn2c(nn(-c3ccc(F)cc3)c2=O)C1 the Potency was inconclusive: 28.2 µM [inhibitor, partial curve, poor fit].
For O=C(NC1CCCCCC1)c1ccc(Cn2ccn3nc4c(c3c2=O)CCCC4)cc1, the Potency was inconclusive: 39.8 µM [inhibitor, partial curve, poor fit].
With COCCN1C(=O)[C@@H]2C[C@@H](CN2Cc2ccccc2Cl)Oc2ccccc21 the Potency was inconclusive: 89.1 µM [inhibitor, partial curve].
In the case of CC(=O)N1CCc2ccc(S(=O)(=O)N3CCCc4ccccc43)cc2C1, the Potency is reported as inconclusive: 22.4 µM [inhibitor, full curve].
In the case of CC(=O)N1CCN(C(=O)C2CCCCN2Cc2ccc(-c3cccs3)cc2)CC1 (stereo not given), the “activity change, negative = cytotoxicity” value is reported as inactive: -19.3%.
With CC(O)c1cc2n(n1)CCN(C(=O)CCc1nc3ccc(F)cc3[nH]1)C2 (stereo not given) the “activity change, negative = cytotoxicity” value was inactive: -5.98%.
In the case of CCc1nc(NCCc2cc(OC)cc(OC)c2)c2cnn(C)c2n1, the Potency is reported as inconclusive: 50.1 µM [inhibitor, partial curve, poor fit].
With CCOC(=O)[C@@H]1CN(C(=O)COc2ccccc2)[C@H]2c3ccccc3O[C@@H]12 the Potency was inconclusive: 44.7 µM [inhibitor, partial curve, poor fit].
In the case of O=c1c2nc(-c3ccc(O)c(F)c3)ccc2ncn1Cc1ccccn1, the Potency is reported as active: 79.4 µM.
With Cc1nn(-c2ccccc2)c2c1C(C(C)C)N(C1CCN([S+](=O)([O-])c3ccccc3)CC1)C2=O (stereo not given) the “activity change, negative = cytotoxicity” value was inactive: 2%.
In the case of Cc1ccc([S+](=O)([O-])NC2CCN(c3ccc4nnc(C)n4n3)CC2)cc1, the “activity change, negative = cytotoxicity” value is reported as inactive: -27.1%.
In the case of CC(C)NC(=O)c1cn2cc(-c3ccc(C(F)(F)F)cc3)sc2n1, the “activity change, negative = cytotoxicity” value is reported as inactive: -29.9%.
With COc1ccc(CNC(=O)c2cc3c(N4CCSCC4)nc(C)cn3n2)cc1 the Potency was inconclusive: 50.1 µM [inhibitor, single point].
With CC(C)(C)CC(=O)N1CC[C@H](NC(=O)NC2CCCCC2)[C@H]1C(=O)N[C@H](Cc1c[nH]c2ccccc12)C(N)=O the “activity change, negative = cytotoxicity” value was inactive: -7.76%.
For Cc1noc(C)c1CC(=O)NC1CCc2nnc(C3CC3)n2CC1 (stereo not given), the “activity change, negative = cytotoxicity” value was inactive: -0.788%.
With Fc1cccc(-c2cnc(Nc3cnccn3)c3c2CCO3)c1 the Potency was inconclusive: 89.1 µM [inhibitor, single point].
With Cc1ccc(-c2c(C(=O)NCC3CCCCC3)nc3sccn23)cc1 the Potency was inconclusive: 50.1 µM [inhibitor, partial curve, poor fit].
With Cc1ccc(C(=O)N2CCC[C@H](n3c(=O)n(Cc4ccccc4)c4cccnc43)C2)cn1 the “activity change, negative = cytotoxicity” value was inactive: -28.3%.
With O=C(c1ccc2c(c1)OCO2)N1CCN(c2nnc3ccccn23)CC1 the “activity change, negative = cytotoxicity” value was inactive: -15.1%.
With CCCn1cc(CNC(=O)c2ccc3c(c2)n(CC)c(=O)c2ccnn23)c(C)n1 the Potency was inconclusive: 44.7 µM [inhibitor, partial curve, poor fit].
In the case of O=C1OCC2(CCN([S+](=O)([O-])c3ccc(C(F)(F)F)cc3)C2)N1Cc1ccccn1 (stereo not given), the Potency is reported as inconclusive: 70.8 µM [inhibitor, single point].
In the case of COc1ccc(-c2ccccc2C(=O)NC2CC2)nn1, the “activity change, negative = cytotoxicity” value is reported as inactive: -0.205% [at 138 µM].
In the case of O=C(Cc1cccc(Cl)c1)N1CCCC(C(=O)N2CCCC2c2nc3ccncc3[nH]2)C1 (stereo not given), the “outcome” value is reported as “inactive”.
For COCc1ccc2c(c1)c(OC(C)(C)C(=O)NCCCN1CCCC1=O)nn2Cc1cccnc1, the Potency was inconclusive: 56.2 µM [inhibitor, partial curve, poor fit].
For CC[C@H]1CN(C(=O)Nc2cccc(C(F)(F)F)c2)CC[C@H]1CC(=O)NCCSC, the Potency was inconclusive: 63.1 µM [inhibitor, full curve, poor fit].
In the case of O=c1c2c(nc3cc(-c4ccccc4)[nH]n13)CCN(S(=O)(=O)c1ccccc1Cl)C2, the Potency is reported as inconclusive: 50.1 µM [inhibitor, partial curve, poor fit].
For Cn1ccnc1-c1ccc(N2CCCC(CO)(CCOc3ccccc3)C2)nn1 (stereo not given), the Potency was inconclusive: 20 µM [inhibitor, full curve, poor fit].
With COCCn1cnc2ccc(-c3cccc(C)c3)nc2c1=O the Potency was inconclusive: 56.2 µM [inhibitor, partial curve, poor fit].
With OCc1cccc(-c2ccc3ncc(Nc4ccccc4F)n3n2)c1 the Potency was inconclusive: 15.8 µM [inhibitor, full curve, poor fit].
For Cc1nn(-c2ccccc2)c2c1C(C)N(CC1CN(Cc3cccc(C(F)(F)F)c3)C1)C2=O (stereo not given), the Potency was inconclusive: 44.7 µM [inhibitor, partial curve, poor fit].
For COCCOc1ccc2c(n1)CCN(C(=O)c1sccc1C)C2, the Potency was inconclusive: 50.1 µM [inhibitor, partial curve, poor fit].
With CC(C)NC(=O)c1nc(-c2ccc(Cl)nc2)c2ccccn12 the Potency was active: 35.5 µM.
With S=C(NC1CCCCC1)N[C@H]1CO[C@H]2[C@@H]1OC[C@@H]2n1nnnc1Oc1ccc2c(c1)OCO2 the Potency was inconclusive: 7.94 µM [inhibitor, full curve, poor fit].
With Cn1cnc2cc(Nc3ccc(Cl)cc3F)cc(C(=O)NCc3cccnc3)c21 the Potency was inconclusive: 79.4 µM [inhibitor, partial curve].
For Cn1cc(-c2cc(=O)c3ccnc(NCc4ccc(F)cc4)c3o2)cn1, the Potency was inconclusive: 11.2 µM [inhibitor, full curve, poor fit].
For Cc1ccc(C(=O)NC2CCCN(c3nc4ncccc4o3)C2)cc1 (stereo not given), the “activity change, negative = cytotoxicity” value was inactive: -15% [at 138 µM].
For CN1CC(=O)N(c2ccccc2F)Cc2c(NCCc3ccc(F)cc3)ncnc21, the Potency was inconclusive: 50.1 µM [inhibitor, partial curve, poor fit].
For COCCCNC(=O)N1CCC(n2c(C)cnc2C2CCOCC2)CC1, the “outcome” value was “inactive”.
For CCc1noc(-c2cn(C3CCCN(C(=O)c4ccc(Cl)s4)C3)nn2)n1 (stereo not given), the Potency was inconclusive: 44.7 µM [inhibitor, partial curve, poor fit].
With c1cncc(Nc2cc3c(cn2)CN(Cc2ccc4[nH]ccc4c2)CCN3)c1 the Potency was inconclusive: 31.6 µM [inhibitor, partial curve, poor fit].
In the case of COCCCNC(=O)c1cccc(-c2ccc(OC)nn2)c1, the “activity change, negative = cytotoxicity” value is reported as inactive: -15.1% [at 138 µM].
In the case of COCC(=O)NC[C@H]1CCN(Cc2cccs2)C[C@H]1N(C)C, the “activity change, negative = cytotoxicity” value is reported as inactive: -8.61%.
With O=C1CN([S+](=O)([O-])C2CC2)CCN1[S+](=O)([O-])c1ccc(Cl)nc1 the “activity change, negative = cytotoxicity” value was inactive: -25.2%.
With C=CCNC(=O)Nc1nc2c(s1)C[C@]1(C)CC[C@@H]3[C@H](OC(=O)[C@H]3C)[C@H]1[C@@H]2C the “activity change, negative = cytotoxicity” value was inactive: -10.1% [at 174 µM].
For COc1cccc(-c2ccnc3nc(CCc4ccccc4)nn23)c1, the Potency was inconclusive: 50.1 µM [inhibitor, partial curve, poor fit].
In the case of COc1ccc(-c2noc(-c3nc(C(C)C)no3)n2)cc1, the “activity change, negative = cytotoxicity” value is reported as inactive: -4.9%.
In the case of O[C@@H]1C[C@@H](c2nc(-c3ccncc3)no2)N(C2CCCCC2)C1, the “activity change, negative = cytotoxicity” value is reported as inactive: -4.12% [at 138 µM].
In the case of O=C(c1ccoc1)N1CCCC(n2cc(-c3nc(-c4ccccc4)no3)nn2)C1 (stereo not given), the Potency is reported as inconclusive: 28.2 µM [inhibitor, partial curve, poor fit].
In the case of C[S+](=O)([O-])N1CCCC(c2nn(-c3ccc(F)cc3)c(=O)[nH]2)C1 (stereo not given), the “activity change, negative = cytotoxicity” value is reported as inactive: -13.8%.
For CCn1c2c(c(=O)n1-c1ccccc1)CCN(Cc1ccccn1)C2, the Potency was inconclusive: 100 µM [inhibitor, single point].
For COc1cc(CNC(=O)[C@@H]2C[C@H](c3ccc(F)cc3)N(Cc3csc(C)n3)C2)cc(OC)c1, the Potency was inconclusive: 56.2 µM [inhibitor, partial curve, poor fit].
With Cn1cccc1CN1CCCC2(C1)C(=NC1CCCCC1)NC(=O)N2c1cc(F)cc(F)c1 (stereo not given) the Potency was inconclusive: 11.2 µM [inhibitor, full curve, poor fit].
In the case of COc1cccc(-c2cc(C(=O)NC3CCC3)c3cnn(C)c3n2)c1, the Potency is reported as inconclusive: 56.2 µM [inhibitor, partial curve, poor fit].
For Cc1nc(N2CCC(NC(=O)Cc3ccccc3C)CC2)cc(C(F)(F)F)n1, the Potency was inconclusive: 17.8 µM [inhibitor, partial curve, poor fit].
